In publication PMC12136788:
The list shows a part of the results.

T1: UNK ZnF1-3 (human, UniProt Q9C0B0 31-174)
T1 sequence: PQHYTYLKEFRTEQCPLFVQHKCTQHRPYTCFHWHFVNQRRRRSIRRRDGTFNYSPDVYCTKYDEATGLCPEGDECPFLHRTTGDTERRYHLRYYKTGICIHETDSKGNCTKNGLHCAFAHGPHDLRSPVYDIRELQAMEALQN

B1: chr8:35894304:35894305:-_ENSMUSG00000031529_ENSMUST00000033929|mus_mus|FALSE|FALSE (ssRNA)
RNA: GGGAGUUCUACAGUCCGACGAUCUUUUCAAAGUAACAACGACAACAAGAAGCAUCAACAAAUAUGCUUGGCAAAAUUAAAAAAUGAGCACACCACAUGUGUCUGUUAUUCAUGUGCCAAACAUAACCAAGAAAAUGUAGUGUACAACAGAGGAUUGAGCAUCA
B2: chr7:56126124:56126125:+_ENSG00000146731_ENST00000540286|hu_hu|motif|central (ssRNA)
RNA: GGGAGUUCUACAGUCCGACGAUCUUGAUUAAUAACAACAAAUCCUUUAUCUGAAUCGCCACAGACUUUCCUUUUCAGUUCGGUUAUUUUUUUAACCCUAUCUUCAAUGAAUUUUCUUUCAGCUUUCACGAGUUUUUCUCUCUCCAACAGAGGAUUGAGCAUCA
B3: chr4:107938938:107938939:-_ENSMUSG00000034636_ENSMUST00000043616|mus_mus|FALSE|FALSE (ssRNA)
RNA: GGGAGUUCUACAGUCCGACGAUCCCGGCUGAAGCACCGCUCAUAUGGAUCCUCGAGGGACAGAGUUAAUGAGUUUAGUACUAAGCACUGAAGAUUUUGCUGGAUCCACUUGUUACUGCCAAGGCCACUUAUGAUGUCUGUGAUCAACAGAGGAUUGAGCAUCA
B4: 91606604_91606724_216_5pUTR_ENSMUSG00000040506_ENSMUST00000045705|mouse|control|control (ssRNA)
RNA: GGGAGUUCUACAGUCCGACGAUCAUGGUGCUCAGGAGCCACUGUCGCACCAGGGAUCAGAACUGAAGGAGCAAGCAAUAGCUCCACACACAGAAAUAGCUAAAAUGAGGCCAUUCAGGUCCUUGUCAGCUGUCCUCAUGGAAACAACAGAGGAUUGAGCAUCA
B5: chr9:71842732:71842733:+_ENSG00000119139_ENST00000377245|hu_hu|FALSE|FALSE (ssRNA)
RNA: GGGAGUUCUACAGUCCGACGAUCAUCAUAAUCAGAAUACUGAUGACGUCUCUCCUCUGGAGAAAAUGAUCGGUUUGACUCUAUUUCUGAAAUAUCUUCUAUUUCUGAGUCACUGUCAUUUAAUGACGGGAUGUUGAUGAGGGUCAACAGAGGAUUGAGCAUCA
B6: 106622725_106625096_637_CDS_ENSMUSG00000040661_ENSMUST00000046502|mouse|control|control (ssRNA)
RNA: GGGAGUUCUACAGUCCGACGAUCUCUUCUUUCCAAUUCUUCCUGCUGUGCUGCUUUGGUUACGGGCUCCAACUGAUCCUCCCGGAGUAGCUUUCGUAUGUUUCUUCUCAUGUGAGAGGGCUUCUGAGCUCGCUUCUUUUUGGGCAACAGAGGAUUGAGCAUCA

target: T1, UNK ZnF1-3; test: nsRBNS (natural sequence RNA bind-n-seq); RBNS binding buffer (assumed for nsRBNS): 25 mM Tris pH 7.5, 150 mM KCl, 3 mM MgCl2, 0.01% Triton X-100, 500 ug/ml BSA, 20 U/ml SUPERase-In, 4 C; UNK is unkempt and MSI1 is Musashi-1; names of the RNAs are library labels; protein concentration not given here; high values mean tight binding

Row | Binder | binding signal
1 | B1 | 1.39 enrichment R
2 | B2 | 0.291 enrichment R
3 | B3 | 1.18 enrichment R
4 | B4 | 0.924 enrichment R
5 | B5 | 0.672 enrichment R
6 | B6 | 0.266 enrichment R
